# According to the supplement of paper PMC4166925:
# ± gives the standard deviation of the averaged measurements. Whole data set: some 33,000 sequences, median “E-score (dimensionless, -0.5 to 0.5)” near -0.046, cut for the highest 2% near 0.36. This is one part of the list.
# System: T1, SpTbr T-box DNA-binding domain (GST fusion)
# T1 sequence: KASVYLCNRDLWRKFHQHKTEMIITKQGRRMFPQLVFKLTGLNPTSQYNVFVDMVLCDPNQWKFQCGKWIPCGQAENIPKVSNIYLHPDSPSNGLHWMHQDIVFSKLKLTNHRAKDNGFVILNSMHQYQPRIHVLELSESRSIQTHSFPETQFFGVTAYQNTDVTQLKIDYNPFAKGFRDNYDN
# Test: PBM E-score of 8-mer (E-score (dimensionless, -0.5 to 0.5)); Tbr is Tbrain of the sea star Patiria miniata (Pm) or the sea urchin Strongylocentrotus purpuratus (Sp); higher = stronger binding preference; most listed sequences are background and not binding sites
# Conditions: the construct has about 5 more residues each side
# Summary of the method: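 Universal Agilent oligonucleotide arrays, made double-stranded by primer extension, were incubated with 200 nM GST-fused Tbr T-box DNA-binding domain in PBS (pH 7.5). The protein was expressed in BL21 E. coli at 20 °C and purified by glutathione affinity chromatography. After scanning and quantification, the Universal PBM Analysis Suite assigned an enrichment E-score to each ungapped 8-mer, averaged over duplicate arrays.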
row,Sequence,PBM E-score of 8-mer
1,CTAAACAA,0.00197 ± 0.031
2,ATCCCCCG,-0.0799 ± 0.04
3,ACCAACCT,0.0223 ± 0.055
4,CGAGGGGA,-0.0885 ± 0.018
5,CGTTAATC,0.117 ± 0.0075
6,GCTATTAC,0.0126 ± 0.066
7,GGGAATAC,-0.219 ± 0.055
8,GGATGCCA,-0.117 ± 0.05
9,GGTCAGTA,-0.255 ± 0.048
10,ACAGTCTA,-0.06 ± 0.06
11,CCACTTGA,0.109 ± 0.013
12,TAGCACTA,0.252 ± 0.095
13,TGCGGAAA,0.0644 ± 0.12
14,CACTAGAG,0.00017 ± 0.027
15,AGTCGCGG,0.0304 ± 0.054
16,ACGTTACA,-0.0641 ± 0.0049
17,AACAGCGG,-0.0191 ± 0.046
18,TCTCGAAA,-0.0659 ± 0.035
19,CGGGCTAG,-0.199 ± 0.017
20,GGTGGAAC,-0.00193 ± 0.025
21,AAATTGTC,0.0694 ± 0.077
22,AAGTCCCG,-0.114 ± 0.021

row,Sequence,PBM E-score of 8-mer
1,ACGAGAAA,-0.0381 ± 0.012
2,AGCTTTGC,0.0173 ± 0.0045
3,AAGTTAAT,-0.0442 ± 0.027
4,ACATATCC,-0.0962 ± 0.058
5,GAGCCTCC,-0.253 ± 0.064
6,TAGATGCA,-0.264 ± 0.024
7,ACTGTTCC,-0.049 ± 0.031
8,CCCTTCCA,-0.0582 ± 0.031
9,GATTGAAC,-0.131 ± 0.0084
10,ACGATATC,0.13 ± 0.023
11,ACCCAACT,-0.0208 ± 0.073
12,AACCCCGC,0.136 ± 0.034
13,AATGCTCG,-0.0892 ± 0.013
14,CAAAAACA,0.0761 ± 0.022
15,AATTGTTA,0.149 ± 0.099
16,CAATAAAC,-0.024 ± 0.052
17,ACCGATCA,-0.0145 ± 0.012
18,ACTTTGCA,0.109 ± 0.018
19,CCGTGTTC,0.00821 ± 0.049
20,TACTCAAA,-0.0413 ± 0.031
21,CCAGCCTA,-0.0578 ± 0.023
22,ATTGGTAC,-0.114 ± 0.015

row,Sequence,PBM E-score of 8-mer
1,TACATGCA,-0.27 ± 0.025
2,AACGAATC,-0.0552 ± 0.047
3,AGTCCCAT,-0.147 ± 0.05
4,TCTGTCCA,-0.147 ± 0.011
5,GAACCCTA,-0.0827 ± 0.012
6,AGAGTTTC,-0.243 ± 0.052
7,CAGGAGTA,-0.192 ± 0.033
8,CGGATTTC,-0.158 ± 0.053
9,TCAGGGGA,-0.248 ± 0.0085
10,AAATCTCG,0.0364 ± 0.078
11,CCCCGCAA,-0.0604 ± 0.009
12,CCACCTTC,0.2634 ± 0.0018
13,GGTTCGAA,-0.0472 ± 0.014
14,CAGTGAGG,0.0108 ± 0.00017
15,CCTCTCAA,0.0499 ± 0.1
16,ACAAGCAG,-0.0984 ± 0.071
17,CACTTGCG,0.387 ± 0.026
18,ATGTGCGC,0.211 ± 0.054
19,CAGTGGAG,-0.0191 ± 0.077
20,CGGCTTCA,-0.133 ± 0.076
21,AGGCGTAG,0.0197 ± 0.011
22,CGCTCGGC,-0.17 ± 0.043

row,Sequence,PBM E-score of 8-mer
1,CCCGACCA,-0.0933 ± 0.078
2,GTCCGCAC,0.295 ± 0.027
3,ACGGACGT,-0.0499 ± 0.034
4,CAATTGCA,0.27 ± 0.0096
5,GATGAGCA,-0.0282 ± 0.0047
6,AATAGAAA,-0.0389 ± 0.016
7,CACAAAGC,0.0508 ± 0.018
8,GTTGATTA,0.0542 ± 0.058
9,CAGCACAA,-0.172 ± 0.0041
10,ACGGGGCT,-0.0853 ± 0.058
11,CTAATCAG,-0.124 ± 0.0089
12,CCGCCATC,-0.0442 ± 0.011
13,TATCTACA,-0.0305 ± 0.072
14,GAGGTAAC,-0.112 ± 0.0074
15,ACAAGAAC,-0.128 ± 0.04
16,CGCGGCCA,0.0902 ± 0.1
17,GTAGCTTA,-0.0295 ± 0.0053
18,CATCCTCC,-0.155 ± 0.0072
19,AGAACTTG,-0.15 ± 0.011
20,AATGGCTG,-0.183 ± 0.012
